From the supplement of paper PMC4604168 (melanoma cell lines) come the findings set out here.

The list shows a part of the results. Most values come without repeats; read them as rough.
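Also: cells treated in 1,536-well plates, then fixed and DAPI-stained, with nuclei counted from automated high-throughput microscope images.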

This assay concerns SkMel2. Briefly: cell count relative to DMSO control; melanoma cells; higher = more viable cells. To be noted: library dose: standard library concentration; 72 h.
`O=c1[nH]nc(Sc2ncc([N+](=O)[O-])s2)n1-c1ccc2c(c1)OCCO2` + O=C1NC(=O)/C(=C/c2ccc(-c3ccc(F)cc3O)o2)S1 [AS252424] (first compound 1 µM, partner dose 5 µM) yielded a cell count of 124%.

For `O=c1[nH]nc(Sc2ncc([N+](=O)[O-])s2)n1-c1ccc2c(c1)OCCO2` + CCc1ccc(CCOc2ccc(CC3SC(=O)NC3=O)cc2)nc1 [pioglitazone] (first compound 1 µM, partner dose 10 µM), the cell count is 100%.

For `O=c1[nH]nc(Sc2ncc([N+](=O)[O-])s2)n1-c1ccc2c(c1)OCCO2` + O=C(O)C(=O)Nc1sc2c(c1C(=O)O)CCNC2 [TCS401] (first compound 1 µM, partner dose 8.33333 µM), the cell count worked out at 97.6%.

Turning to `O=c1[nH]nc(Sc2ncc([N+](=O)[O-])s2)n1-c1ccc2c(c1)OCCO2` + Nc1cccc2c1CN(C1CCC(=O)NC1=O)C2=O [lenalidomide] (first compound 1 µM, partner dose 5 µM), the cell count was determined as 87.4%.

`O=c1[nH]nc(Sc2ncc([N+](=O)[O-])s2)n1-c1ccc2c(c1)OCCO2` + c1cc(-c2cnn3cc(-c4ccc(OCCN5CCCCC5)cc4)cnc23)ccn1 [Dorsomorphin] (first compound 1 µM, partner dose 2 µM) returned a cell count of 83.1%.

`O=c1[nH]nc(Sc2ncc([N+](=O)[O-])s2)n1-c1ccc2c(c1)OCCO2` + COc1ccc2c(c1)CCC1C2CCC2(C)C(NCCCCCCN3C(=O)C=CC3=O)CCC12 [U73122] (first compound 1 µM, partner dose 2 µM) registered a cell count of 97.8%.

`C[C@@H]1CCN(C(=O)CC#N)C[C@@H]1N(C)c1ncnc2[nH]ccc12` + Oc1nc(-c2ccc(C(F)(F)F)cc2)nc2c1CSCC2 [XAV939] (first compound 5 µM, partner dose 10 µM) came in with a cell count of 86.1%.
